# Assay results reported in the supplement of paper PMC10338343.
# ± gives the standard deviation. In all, about 3,000 sequences were measured (“pre-steady-state target cleavage rate”: median about 0.0079, highest 2% from about 0.2 on). Only a part is listed here, and it is no random draw.
# Test system: MILI (PIWIL2) piRISC loaded with piRNA #2 (26 nt)
# Test: pre-steady-state target cleavage rate (min^-1); MIWI and MILI are mouse PIWI proteins and EfPiwi is from a freshwater sponge; tags in brackets are library labels; higher = faster piRNA-guided slicing of the target
# Settings: guide: piRNA #2 5'p-UUAGGUAACCCAGUAGAUCCAGAGGA; auxiliary factor: 500 nM mouse GTSF1
# Method: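 Cleave-'n-Seq: a library of target RNAs (target site embedded in constant flanks, ACAGCATTCCGCGTTAGTGATATCCG... 5' flank; DNA-blocked outside the site) at 0.1 nM was incubated with 1 nM active mouse MILI or MIWI piRISC (synthetic 5'-monophosphorylated piRNA guide) with or without 500 nM mouse GTSF1 at 33 °C for 1 min to 16 h. Uncleaved targets were sequenced and normalised to non-target controls, and the pooled three trials were fitted to a burst-and-steady-state model to give the pre-steady-state cleavage rate (min^-1; k3 is constrained to at most 1e-4). Sequence is the target site only; target names encode pairing extent (gX:gY) and contiguous / 1-mismatch / 2-mismatch / bulge geometry. Fits with R² ≤ 0 are excluded.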
row,Sequence,pre-steady-state target cleavage rate
1,CUUAAGGAGUGCAUCUACAGGGUUACCUAA,0.0222 ± 0.0091
2,CUUAACCUGUGGAUCUAGUGGGUUACCUAA,0.0719 ± 0.014
3,CUUAAGGAGACCUUCUACUCGGUAACCUAA,< 0.0001
4,CUUAUCCUCUGGAUCUCUGGGUUACCUAA,0.0227 ± 0.01
5,CUUAAGGACUGGAUCUACUGGGUUACCUCAA,0.0196 ± 0.014
6,CUUAAGCUGUGGAUCUUCUGGGUUACCUAA,0.0316 ± 0.015
7,CUUAAGCACUGGAUCUACUGGGUUAGCUAA,0.0264 ± 0.01
8,CUUAAGGUCUGGAUCUACUGGGUUUGCUAA,0.0757 ± 0.029
9,CUUAACGAGUGGAUCUACUGGGUUACCUAA,0.0724 ± 0.021
10,CUUAAGGAGACCUAGUACUGGGUUACGAUA [g5:g15:cont:t1A],< 0.0001
11,CUUAUCCUGUGGAUCUACUGGGUUACCUAA,0.092 ± 0.014
12,CUUAAGGUCUGGAUCUACUGGGUUUCCUAA,0.0766 ± 0.02
13,CUUAAGGUCUGGAUCUACUGGGUUACCAAA,0.048 ± 0.01
14,CUUAUCCUCUCGAUCUACUCGGUUACCUAA,0.0053 ± 0.0015
15,CUUAUCCACAGGAUCUACUGGGUUACCUAA,0.0392 ± 0.011
16,CUUAAGCUCUGGAUCUACUGGGUUAUCCUAA,0.0827 ± 0.018
17,CUUAACCUCAGGAUCUACUGCGUUACCUAA,0.0123 ± 0.0061
18,CUUAAGGUCUGGAUGUACUGGGUUUCCUAA,0.0124 ± 0.011
19,CUUAUCCUCUGGAUCUACUGCGUUUCCUAA,0.00538 ± 0.004
20,CUUAAGGAGUGGAUCUAGUGGGUAACCUAA,0.00624 ± 0.0032
21,CUUAAGGUCUCGAUCUACUGGGAUACCUAA,0.0139 ± 0.0058
22,CUUAUCCUCAGGAACUACUGGGUUACCUAA,0.107 ± 0.02
23,CUUAAGCUCUGGAAUCUACUGGGUUACCUAA,0.0887 ± 0.022
24,CUUAUCCACUGGAUCUAGUGGGUUACCUAA,0.0753 ± 0.013

row,Sequence,pre-steady-state target cleavage rate
1,CUUAUCCUCUGGAUGUAGUGGGUUACCUAA,0.0679 ± 0.01
2,CUUAAGGACUGGAUCUACAGGGUUAGCUAA,0.0183 ± 0.0082
3,CUUAACCUCUGCAUCUACUCGGUUACCUAA,0.00303 ± 0.003
4,CUUAAGCUCUGGAUCUAGUGGGUUACGUAA,0.0139 ± 0.0039
5,CUUAACCUCUGGAUCUACUGGGUUAGCAAA,0.0809 ± 0.022
6,CUUAAGGACUGGAUCUACAGGGAUACCUAA,0.0157 ± 0.0078
7,CUUAUGCUCUGGUUCUACUGGGUUACCUAA,0.178 ± 0.037
8,CUUAAGGAGAGCAUCUUCUGGGUUACCUAA,0.0076 ± 0.0058
9,CUUAAGGAGUGGAUCUACUGGGUUACCAAA,0.0137 ± 0.0062
10,CUUAAGGUCAGGAUCUAGUGGGUUACCUAA,0.0133 ± 0.0076
11,CUUAUCCUCUGGAUGAACUGGGUUACCUAA,0.0359 ± 0.011
12,CUUAAGGUAUGGAUCUACUGGGUUACCUAA,0.0635 ± 0.015
13,CUUAAGGACUGGAUCUACAGGGUUACCUAA,0.0863 ± 0.015
14,CUUAAGGACUGGUUCUAGUGGGUUACCUAA,0.0139 ± 0.0072
15,CUUAAGCUCUGGAUCUACUGGGUUACCUUA,0.0784 ± 0.018
16,CUUAAGGUCUGGACUACUGGGUUACCUAA,0.0417 ± 0.015
17,CUUAAGGACUGGAUCAAGUGGGUUACCUAA,0.00753 ± 0.005
18,CUUAACCUCUGGUUCUACUCGGUUACCUAA,0.00985 ± 0.0055
19,CUUAAGGAGACCUACUACUUGGUUACCUAA,< 0.0001
20,CUUAAGGAGAGGAUCUACUGGGUUACCUUA,0.00788 ± 0.0047
21,CUUAAGGUCUGGAUCUAGUGGGUAACCUAA,0.0225 ± 0.007
22,CUUAAGGUCUGGUACUACUGGGUUACCUAA,0.0536 ± 0.021
23,CUUAAGCUGUGCAUCUACUGGGUUACCUAA,0.0912 ± 0.028
24,CUUAAGGACUCGGAUCUACUGGGUUACCUAA,0.0209 ± 0.0086

row,Sequence,pre-steady-state target cleavage rate
1,CUUAUCUCUCUGGAUCUACUGGGUUACCUAA,0.0647 ± 0.018
2,CUUAUCCUCUGGAUCUACAGGGUUACCUAA,0.119 ± 0.016
3,CUUAAGCUCUGGAUCUACUGGGUUACCUUAA,0.0518 ± 0.015
4,CUUAUCCUCUCGAUCUACUGGGUUACGUAA,0.0518 ± 0.015
5,CUUAACCUCUGGAUCUACUGGGUUACUCUAA,0.123 ± 0.026
6,CUUAACCUCUGGAUCUACAGGGAUACCUAA,0.0435 ± 0.011
7,CUUAAGGUCUGGAUCUACUGGGUUACGCUAA,0.127 ± 0.023
8,CUUAAGGAGAGGAUCUACUGGGUUAACCUAA,0.00517 ± 0.0051
9,CUUAACCAUCUGGAUCUACUGGGUUACCUAA,0.122 ± 0.025
10,CUUAACGUCUGGUUCUACUGGGUUACCUAA,0.158 ± 0.026
11,CUUAAGGAGUGGAUCUACUGGGUUACACUAA,0.0115 ± 0.0053
12,CUUAACCUCUGGAUGUACUGGGUUACCAAA,0.0793 ± 0.019
13,CUUAUCCUCUGGACUACUGGGUUACCUAA,0.133 ± 0.027
14,CUUAAGCUCUGGAUCUUCUGGGUUACCUAA,0.043 ± 0.012
15,CUUAAGCUCUGGUAGUACUGGGUUACCUAA,0.0538 ± 0.018
16,CUUAUCCUCUGGAUCUACUGGGUUACUUAA,0.114 ± 0.02
17,CUUAAGGACCGGAUCUACUGGGUUACCUAA,0.027 ± 0.022
18,CUUAACUCUCUGGAUCUACUGGGUUACCUAA,0.0665 ± 0.022
19,CUUAAGGUCAGGAUCUACUGGGUUACCUAA,0.0467 ± 0.016
20,CUUAAGCUCUGGAUCUACUGCGUUACCAAA,0.00805 ± 0.0058
21,CUUAAGGUCUGGAUCUACAGGGUUUCCUAA,0.103 ± 0.024
22,CUUAAGGAGAGAUCUACUGGGUUACCUAA,0.00723 ± 0.0036
23,CUUAACCUCUGGAUCUCUGGGUUACCUAA,0.00889 ± 0.0054
24,CUUAUCCUCUGGAUCUUCUGGGUUACCUAA,0.105 ± 0.019
